Test results: the RNAGym collection of RNA variant scans (doi:10.7554/elife.90254)
Read counts are not given, so values of variants with three or more changes are uncertain.

B1: LINE1-mini (parent)
chain: GGCAGAGCUCAACACAGCGUGGCAAAGUGGCUGUGGCUAGACUGCC

Variants of: B1
Experiment: self-cleavage, relative activity (ratio to wild type); higher = more cleavage; in vitro, sequencing; the parent is a self-cleaving ribozyme

Row | Variant | self-cleavage
1 | C3A G27U G44A | 0.9
2 | G2C A14G U20A G27U G36A | 0.01
3 | G2U C15U G29C C45G | 0.09
4 | A6U G7A U9G C31U | 0.01
5 | C8U C10A G44U | 0.04
6 | G1U A6C C13A | 0.01
7 | C13G U34A G44C | 0.07
8 | C8A A11C G21U U32G G40U | 0
9 | G7A C15A C23G U32A | 0.08
10 | A4G C18U G30U | 0.06
11 | G1A G22C G27A | 0.38
12 | C3G G5A A6G C10U A16C | 0.01
13 | A11G C18A G29U C46A | 0.04
14 | C15U G29U A39G | 0.06
15 | G2A G21A A39U C46A | 1.34
16 | C8U A11C C23G C31A C37U | 0
17 | A4U G7A A12G U20G G21C | 0.03
18 | C8U U34G C46U | 0.08
19 | A24C U32C C37A | 0.06
20 | G2A G22C G36U | 0.15
21 | A14U C18G G21U U32C U34C C45G | 0.01
22 | C3A A16G G27U U32G | 0.05
23 | G1U C3G A16C G21C G33U G44U | 0.05
24 | U9G A11U G19A G36A C37G | 0.01

Row | Variant | self-cleavage
25 | G7C C8A G17C | 0.07
26 | A6G C10A C18G G22U G27A G36U G44C | 0.04
27 | G1U G21A G33U | 0.06
28 | G2A C3U G44U | 2.5
29 | C8U A26C U32C | 0.04
30 | C10U G19C G44C | 0.15
31 | G2A G5U C10U U43A | 0.12
32 | A12U G21C G22U U32G | 0.05
33 | A4U G5U C23U | 0.04
34 | A14C G27U C45A | 0.12
35 | C13G G22A G33U C42G | 0.09
36 | A4C C10A G33C G44U | 0.02
37 | C3A G29C C42A | 0.13
38 | C8A A14G G30C G35A | 0.27
39 | G5U A26C G40U | 0.06
40 | A6C G30C G33A C42G | 0.04
41 | G5U A16C G21C U38C C42G | 0.02
42 | C8G A26U C37A | 0.13
43 | G5U G7U G21A G29A G30U | 0.98
44 | G7C C10A C23G | 0.01
45 | C3A A41G G44A | 0.09
46 | C3G U20C G36U C45U | 0.76
47 | C3G A14C G21C G27C | 0.09
48 | C3A C15U C45A | 0.25

Row | Variant | self-cleavage
49 | G21A G22A A39G | 0.02
50 | C10U G17A C23U A26U | 0.16
51 | A4C G19C A25C C31A | 0.01
52 | C10A A12C G21C G22C U28G A39U | 0
53 | C10A G19U G22U A25C U32A | 0.01
54 | C18A G19U C31U | 0.01
55 | G2U G17A U20C A39C | 0.01
56 | G19A G29C G36U | 0.02
57 | G2C U34G G44C | 0.14
58 | C3G C13G G27U U28G A39C | 0.16
59 | G2U C15G C18U | 0.01
60 | G19U G36A C45A | 0.02
61 | G2A A12G C13G U20C C37G C45G | 0.03
62 | U20G G30A G40A | 0.02
63 | G29A C31A G33C | 0.1
64 | A6C G29A C31A | 0.03
65 | U20A G30A G36U A39C | 0.04
66 | G22C C37A C42U G44C | 0.1
67 | C23A A26U U34G | 0.23
68 | A4U A6C C18G | 0.01
69 | C3G C18A G21U C46A | 0.08
70 | C15G U20G C31A G33U G36U | 0.04
71 | C10U G19U G36A C46A | 0
72 | G21C U28C G33U | 0.06

Row | Variant | self-cleavage
73 | C3A G29U U38G A39C | 0.11
74 | G1U C10U G33U G40A C45G | 0.02
75 | U9G U38C G44U | 0.05
76 | A4C A14U U38C | 0
77 | G1U C13G G19C | 0.06
78 | C10U C13U G19U C45G | 0.05
79 | C8U A11G G27A C31G C45A | 0.03
80 | A14G G29C C31G G40U | 0.03
81 | A11C A14C G17U A25G | 0
82 | U9G G29U C42A | 0.05
83 | C3A A4U U9C A12U A14C C23G | 0
84 | C13G G21C C23U | 0.21
85 | G2A U9C A11C G22C C23G U34A G35U | 0.02
86 | G2U C15A A26C | 0.03
87 | A4U G19U G36U | 0.03
88 | C8G A14C G19U | 0.02
89 | G27A G30A C37A | 0.04
90 | G1U G5U G19U G30U G40C C45A | 0.01
91 | C10U G17C A25U | 0.05
92 | C8G C37G C42G | 0.02
93 | A12G A26G U28A G30C U32A | 0
94 | C10G A11C G30A C42U | 0.01
95 | G1U C8G G44A | 0.05
96 | G22C A24U U28C C46U | 0.59

Row | Variant | self-cleavage
97 | G5C C13U G22C C23A U34A | 0.02
98 | C3G A4U G5A G40C | 0.04
99 | A6C A25G U38A | 0.21
100 | G19U G21C C31G | 0.18
101 | G29U C42A C45A | 0.14
102 | A11G U20C A25U G33U A41U | 0
103 | C8G C23U G30A U38A | 0.24
104 | G1U U9C A16G A41G | 0
105 | C8A C10U C31U | 0.08
106 | A12U G30C U32G G35C C45U | 0.01
107 | C18U G33A A39G C46A | 0.01
108 | G2U U28A C46G | 0.15
109 | A14U U20A G27U A39C G40U U43C | 0.04
110 | C18A U34A G44U | 0.01
111 | A26G U32A C45A | 0.01
112 | A14G G29U U38G | 0.04
113 | G1C C13U G21U A41U | 0.01
114 | C8A A11U C18G G19U G29C | 0.03
115 | U9G C23U A24C A25C | 0.01
116 | A11C G17C G35U | 0
117 | G1C G19U G21A U32G | 0.02
118 | G5C A25U G35A | 0.06
119 | G40U C42G G44C | 0.04
120 | G2U G5U U9C C10U | 0.01

Row | Variant | self-cleavage
121 | G2U C8U C13A C18A U32A | 0.05
122 | A6C U9C C13A G17A G27U U28C C31U | 0.02
123 | G29U U34G U38A | 0.41
124 | G1U G17A G22C C37A | 0.14
125 | C8U U9A C15A G19C C46G | 0.19
126 | C10U C18A U28G G30U | 0.16
127 | G1U G5A A11U A26C U32A | 0.01
128 | C8U G21U G33A G35U | 0.07
129 | C13A A26G C31U G35U | 0.12
130 | G19C A25C G30C | 1.16
131 | U32C U34C C37U | 0.03
132 | A12C G17U G29A U38A | 0.03
133 | C13G A26G G27C G36U C37G | 0.02
134 | U20A A25U U38G | 0.03
135 | A14G G29U C46A | 0.18
136 | G5U C10A C18A U20A U28C C42A | 0.01
137 | C8A C13A G22A C31G | 0.31
138 | C13G G40A U43C | 0.1
139 | G7A G33A C45A C46G | 0.04
140 | A6G C8G A39U | 0.01
141 | C8G C15U G33U G35A G40U | 0.17
142 | G7A G29C G33U G40C | 0.18
143 | A4C G19U G33C | 0.1
144 | G2C G7U A24G C31A | 0.03

Row | Variant | self-cleavage
145 | A14C A16G G40U | 0.03
146 | C8A A24G C45U | 0.21
147 | C3A G7U A26U G27A | 0.23
148 | C8U G22U G29U C42A | 0.07
149 | G1C A4U G7A U9G | 0.04
150 | A11C G27U G35U | 0.05
151 | C3U A12C G19C A41U | 0.01
152 | C3A A4U A6G G22A | 0.1
153 | C3A U20A G21A | 0.68
154 | G1C G5U U32A C37G | 0.01
155 | A25G U34C A39C | 0.08
156 | C3U G17C G19U A41U | 0.08
157 | G22C U28A U43G C45U | 0.04
158 | G19C G27U U43A | 0.01
159 | A4G A11C G17C A25C A41U | 0.01
160 | C10A A16C G19A G30A U38C | 0.02
161 | G5A U32A G36A A39G | 0.11
162 | G5A G19C C31A U32G G33C | 0.03
163 | A26C C31U U32C U34G G44C | 0.1
164 | C3A G27U G35U C45A | 0.08
165 | G2U A4U A6U C10U C45U | 0.13
166 | C15A G19C U28C G30A | 0.1
167 | U9C C13G G21U | 0.03
